In PubChem BioAssay AID588453 (National Center for Advancing Translational Sciences (NCATS), 2011):
Where “and” joins values, the source holds several entries; their conditions need not be identical. Identical values can stand only once. In all, about 390,000 compounds went through this assay and about 4,000 (1%) were called active. The inconclusive results got no clear call from the source; some entries with a clear call stand among them for comparison. Calls follow the shape of the dose curve; as a rule, active = well fitted inhibition curve with a large enough effect; inconclusive = small, poorly fitted or top-dose-only effect; inactive = no such curve, though single readings can be large or run the other way. A potency beside an inconclusive call is a rough fit, not a confirmed value.
Also: nearly all actives have a fitted effect of over 65% in size.
Potency is read from the fitted curve at half-maximal effect; tags tell the direction and shape of the fitted curve.

These molecules were tested against Thioredoxin reductase 1, cytoplasmic (Rattus norvegicus) (UniProt O89049) (assay: qHTS Assay for Inhibitors of Mammalian Selenoprotein Thioredoxin Reductase 1 (TrxR1): qHTS). Settings: recombinant rTrxR1, NADPH fluorescence consumption, selenite substrate; series mostly up to 114 µM.
Sequence of UniProt O89049 (O89049 whole entry, looked up): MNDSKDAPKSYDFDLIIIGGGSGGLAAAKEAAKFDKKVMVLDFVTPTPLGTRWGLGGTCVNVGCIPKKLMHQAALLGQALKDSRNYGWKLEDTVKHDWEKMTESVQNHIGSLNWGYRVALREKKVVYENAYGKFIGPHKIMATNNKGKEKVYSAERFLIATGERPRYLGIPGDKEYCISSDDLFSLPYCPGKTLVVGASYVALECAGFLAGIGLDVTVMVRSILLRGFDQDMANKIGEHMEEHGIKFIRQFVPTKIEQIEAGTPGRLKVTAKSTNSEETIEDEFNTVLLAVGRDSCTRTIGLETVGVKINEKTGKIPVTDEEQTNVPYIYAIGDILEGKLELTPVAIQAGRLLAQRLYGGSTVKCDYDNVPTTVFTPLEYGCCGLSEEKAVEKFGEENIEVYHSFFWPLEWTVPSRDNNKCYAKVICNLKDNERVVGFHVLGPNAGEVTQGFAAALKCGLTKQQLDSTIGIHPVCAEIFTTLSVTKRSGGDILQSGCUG
In short: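 Rat TrxR1 (90 nM in the dispensed reagent) was pre-reduced with 400 uM NADPH for 5 min at room temperature, then incubated with compound for 15 min. After 400 uM selenite was added, NADPH fluorescence (Ex 340/Em 450 nm) was followed for 8 min.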
For `COc1cc(Cl)c(NS(=O)(=O)c2ccc(-c3coc(C)n3)cc2)c(OC)c1`, the Potency was “inactive”.
`O=C(Nc1cccc(NC(=O)c2sc3ccccc3c2Cl)c1)c1ccco1` was tested, and the Potency was inconclusive: 63.1 µM [inhibitor, single point].
`Cc1cc(C)c(NC(=O)CN2C(=O)CCSc3ccc(S(=O)(=O)N4CCCC4)cc32)c(C)c1` was tested, and the Potency was “inactive”.
For `COCCn1c(C)cc(O)c(C(c2ccc(Cl)cc2)N2CCCCC2)c1=O` (stereo unspecified), the Potency was inconclusive: 12.6 µM [inhibitor, partial curve].
`CC(=O)Nc1c2c3c(cccc3n(C)c1=O)C(=O)c1ccccc1-2` was tested, and the Potency was “inactive”.
With `O=C(CSc1nnc(-c2ccccn2)n1-c1ccc(Cl)cc1)Nc1ccc2c(c1)OCO2` the Potency was inconclusive: 12.6 µM [inhibitor, partial curve, poor fit].
For `COc1cccc(NC(=O)Cn2c(=O)n(Cc3ccco3)c(=O)c3cc(OC)c(OC)cc32)c1`, the Potency was inconclusive: 89.1 µM [inhibitor, single point].
For `C=CCn1c(=S)[nH]c2sc3c(c2c1=O)CCC3`, the Potency was inconclusive: 3.55 µM [inhibitor, full curve].
With `COc1ccccc1NC(=O)CSc1nnc(-c2ccco2)n1N` the Potency was inconclusive: 56.2 µM [inhibitor, partial curve].
`O=C(O)/C(=C\c1ccc(-c2ccc(F)cc2)o1)c1ccccc1` was tested, and the Potency was inconclusive: 15.8 µM [inhibitor, partial curve].
For `CCCn1c(-c2cccs2)nc2nc3ccccc3nc21`, the Potency was inconclusive: 70.8 µM [inhibitor, single point].
For `O=C(NCS(=O)(=O)c1ccccc1)c1ccccc1`, the Potency was active: 44.7 µM.
With `O=C(O)c1ccc(S(=O)(=O)c2ccc([N+](=O)[O-])cc2[N+](=O)[O-])cc1` the Potency was inconclusive: 0.355 µM [inhibitor, full curve, poor fit].
In the case of `CCc1cccc(C)c1NC(=O)c1cn2c3c(ccc(Cl)c3c1=O)OC(C)C2` (stereo unspecified), the Potency is reported as “inactive”.
In the case of `COc1ccc(CN2CCNC(=O)C2CC(=O)O)c(OC)c1` (stereo unspecified), the Potency is reported as inconclusive: 44.7 µM [inhibitor, partial curve].
In the case of `O=C(CSc1nnc(-c2ccccc2)n1Cc1ccco1)Nc1ccc2c(c1)OCCO2`, the Potency is reported as inconclusive: 70.8 µM [inhibitor, single point].
With `O=C(Nc1ccc(Cl)cc1)C(Cl)C(=O)c1ccccc1` (stereo unspecified) the Potency was “inactive”.
For `CCCCOc1ccc(C(O)(CCC)CCN2CCOCC2)cc1` (stereo unspecified), the Potency was inconclusive: 50.1 µM [inhibitor, partial curve].
With `O=C(COC(=O)c1ccc([N+](=O)[O-])o1)Nc1ccc2c(c1)OCO2` the Potency was active: 17.8 µM.
In the case of `CCOc1ccc(NC(=S)N2CCC(C(=O)c3ccc(F)cc3)CC2)cc1`, the Potency is reported as inconclusive: 79.4 µM [inhibitor, single point].
`CCCCN(C)S(=O)(=O)c1cc(-c2cc(C)no2)ccc1C` was tested, and the Potency was “inactive”.
`O=c1c2cc(NC(=S)NC3CCCCC3)ccc2nc2n1CCCCC2` was tested, and the Potency was inconclusive: 89.1 µM [inhibitor, single point].
`COc1ccc(/C=C/C(=O)NCCSCc2ccco2)cc1OC` was tested, and the Potency was inconclusive: 70.8 µM [inhibitor, partial curve, poor fit].
`O=C(COc1ccc([N+](=O)[O-])cc1)Nc1ccc2c(c1)OCO2` was tested, and the Potency was “inactive”.
For `CC1C/C(=C\c2cccnc2)C(=O)/C(=C/c2cccnc2)C1` (stereo unspecified), the Potency was active: 50.1 µM.
For `CCOC(=O)c1c(C)[nH]c(C(=O)COC(=O)COc2ccc(OC)cc2)c1C`, the Potency was inconclusive: 89.1 µM [inhibitor, partial curve, poor fit].
For `Oc1ccc2ccccc2c1C=Nc1cc(C(F)(F)F)ccc1N1CCCC1`, the Potency was inconclusive: 89.1 µM [inhibitor, single point].
For `FC(F)(F)c1nnc2c(Sc3ccccn3)nc3ccccc3n12`, the Potency was inconclusive: 25.1 µM [inhibitor, single point].
`O=C(NC(=S)Nc1ccc(N2CCOCC2)cc1)c1cccs1` was tested, and the Potency was inconclusive: 17.8 µM [inhibitor, full curve].
For `CCCCS(=N)(=O)CC[C@H](N)C(=O)O` (stereo partly specified), the Potency was inconclusive: 33.6 µM [inhibitor, partial curve, poor fit].
`Cc1ccc(Nc2c(-c3ccc(N4CCOCC4)cc3)nc3ncccn23)cc1C` was tested, and the Potency was inconclusive: 89.1 µM [inhibitor, single point] and inconclusive: 89.1 µM [inhibitor, partial curve, poor fit].
For `CN(C)CCCN1c2ccccc2Sc2ccccc21`, the Potency was inconclusive: 89.1 µM [inhibitor, single point] and inconclusive: 42.3 µM [inhibitor, single point].
With `CCOc1ccc(N2C(=O)CC(N3CCN(c4ccccc4F)CC3)C2=O)cc1` (stereo unspecified) the Potency was inconclusive: 3.55 µM [inhibitor, single point].
With `O=C(CC1SC(=Nc2ccc3c(c2)OCCO3)NC1=O)Nc1ccc(F)cc1F` (stereo unspecified) the Potency was “inactive”.
For `CCOc1ccc(-c2nc(S(=O)(=O)c3ccccc3)c(NC)o2)cc1`, the Potency was inconclusive: 70.8 µM [inhibitor, partial curve, poor fit].
`NC(Cc1ccc(Cl)cc1)C(=O)O` (stereo unspecified) was tested, and the Potency was inconclusive: 39.8 µM [inhibitor, single point].
In the case of `CC(C)C(=O)NC(=S)Nc1nnn(C)n1`, the Potency is reported as inconclusive: 14.1 µM [inhibitor, partial curve, poor fit].
In the case of `S=c1[nH]nc(-c2ccc(Cl)cc2)n1CC1CCCO1` (stereo unspecified), the Potency is reported as inconclusive: 6.31 µM [inhibitor, partial curve, poor fit].
With `COC(=O)c1ccccc1-n1c(CCC(=O)O)ccc1-c1ccccc1` the Potency was inconclusive: 50.1 µM [inhibitor, partial curve].
For `O=C(O)Cc1ccc(NC(=S)Nc2ccc(Br)cc2Cl)cc1`, the Potency was inconclusive: 35.5 µM [inhibitor, full curve].
For `COc1ccccc1[C@@H]1C(c2cccc(Cl)c2)=NN(c2ccccc2)[C@H]1C(=O)N1CCOC1=O`, the Potency was “inactive”.
With `CC(C)(C)C1=C(C#N)C(c2cccnc2)C(C#N)=C(N)O1` (stereo unspecified) the Potency was inconclusive: 2.24 µM [inhibitor, full curve].
For `COc1ccc(C(=O)NCC(c2ccco2)S(=O)(=O)c2cccs2)cc1OC` (stereo unspecified), the Potency was inconclusive: 39.8 µM [inhibitor, single point].
`O=C(CN1CCCC1)OCCCC1CCCCC1` was tested, and the Potency was “inactive”.
In the case of `Cc1ccc(-c2cc(=O)[nH][nH]2)c(C)c1`, the Potency is reported as inconclusive: 7.94 µM [inhibitor, partial curve, poor fit].
`Cc1cccc2cc(/C=N/NC(=O)[C@H]3C[C@@H]3c3ccccc3)c(Cl)nc12` was tested, and the Potency was inconclusive: 28.2 µM [inhibitor, full curve, poor fit].
With `Cc1cnc2ccccc2c1/C=C/c1ccc(N)cc1` the Potency was inconclusive: 79.4 µM [inhibitor, single point].
In the case of `Cc1ccc(C2C(C#N)=C(N)Oc3nc(-c4ccccc4)[nH]c32)o1` (stereo unspecified), the Potency is reported as inconclusive: 28.2 µM [inhibitor, single point].
For `CNC(=O)c1c(NC(NC(=O)c2ccco2)C(=O)c2ccc(Cl)cc2)sc2c1CCCC2` (stereo unspecified), the Potency was inconclusive: 50.1 µM [inhibitor, partial curve].
In the case of `Cc1ccc(-n2ncc3c(NCC(C)C)ncnc32)c(C)c1`, the Potency is reported as “inactive”.
For `Cc1ccc2c(c1)c1c3n2CCN(CC#N)C3CCC1` (stereo unspecified), the Potency was inconclusive: 89.1 µM [inhibitor, partial curve, poor fit].
With `O=C(NC1CCCC1)C(c1ccccn1)N(C(=O)c1csnn1)c1ccccc1Cl` (stereo unspecified) the Potency was “inactive”.
In the case of `O=C(Oc1ccc(=O)n(-c2ccccc2)n1)c1ccc(Cl)cc1`, the Potency is reported as inconclusive: 25.1 µM [inhibitor, single point].
For `Cc1cc([N+](=O)[O-])nn1Cc1ccc(C(=O)N/N=C/c2ccccc2)cc1`, the Potency was inconclusive: 79.4 µM [inhibitor, single point].
For `CCOC(=O)C1=C(N)n2c(s/c(=C/c3ccco3)c2=O)=C(C(=O)OC)C1c1ccco1` (stereo unspecified), the Potency was inconclusive: 79.4 µM [inhibitor, single point].
For `CC(=O)N(CCC(Cc1ccccc1)c1ccco1)Cc1ccco1` (stereo unspecified), the Potency was inconclusive: 31.6 µM [inhibitor, partial curve, poor fit].
For `Cc1cccc(/C=C2\CCC(=C3SCCCS3)C2=O)c1`, the Potency was inconclusive: 28.2 µM [inhibitor, partial curve].
`CN(C(=O)CSc1nnc(-c2ccc([N+](=O)[O-])cc2)o1)c1ccccc1` was tested, and the Potency was “inactive”.
For `Cc1nc(CCNC(=O)CC2C(=O)NCCN2CC(C)(C)C)nc2c1CCC2` (stereo unspecified), the Potency was inconclusive: 89.1 µM [inhibitor, single point].
With `Cc1noc(NS(=O)(=O)c2ccc(NC(=O)c3ccc(Br)o3)cc2)c1C` the Potency was inconclusive: 6.31 µM [inhibitor, single point].
For `CCC(CC)c1nnc(NC(=O)CS(=O)(=O)c2ccc(C)cc2)s1`, the Potency was inconclusive: 89.1 µM [inhibitor, single point].
For `CCOC(=O)CSc1nnc(Cc2cc(=O)[nH]c(=O)[nH]2)n1-c1cccc(OC)c1`, the Potency was inconclusive: 39.8 µM [inhibitor, single point].
With `CCN(CCn1cccn1)Cc1nc(-c2ccc(OC)cc2)no1` the Potency was inconclusive: 89.1 µM [inhibitor, single point].
In the case of `CCOC(=O)NC1(NC2CCCCC2)Oc2ccccc2O1`, the Potency is reported as active: 31.6 µM.
With `Cc1ccc2oc(-c3cc(NC(=O)/C=C/c4ccco4)ccc3Cl)nc2c1` the Potency was inconclusive: 70.8 µM [inhibitor, partial curve, poor fit].
In the case of `CCOC(=O)NC(NC(=S)Nc1ccccc1OC)C(Cl)(Cl)Cl` (stereo unspecified), the Potency is reported as inconclusive: 22.4 µM [inhibitor, partial curve, poor fit].
